Results taken from PubChem BioAssay AID1466 (National Center for Advancing Translational Sciences (NCATS), 2008).
Screen size: about 200,000 compounds; about 10 (0.005%) were called active. Inconclusive means that the source gave no clear call. Such entries were picked first, then a sample of the others. Calls follow the shape of the dose curve; as a rule, active = well fitted inhibition curve with a large enough effect; inconclusive = small, poorly fitted or top-dose-only effect, or effect the other way, or another doubt; inactive = no such curve, though single readings can be large or run the other way. Potencies of inconclusive entries are doubtful fits and often do not repeat.

Each compound was assayed against Lysosomal alpha-glucosidase (Homo sapiens) (UniProt P10253) (assay: qHTS Assay for Inhibitors of Human alpha-Glucosidase as a Potential Chaperone Treatment of Pompe Disease). Conditions: purified human GAA, 4-MU-alpha-glucoside fluorescence; activity change, negative = inhibition: at 76.9 µM (top of the series) unless noted.
In short: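 Activity normalized between no-enzyme (basal) and enzyme-only wells. Conditions: 4 nM human enzyme, 400 uM fluorogenic substrate, citrate/phosphate pH 5.0 with Tween-20, 20 min room temperature, compounds up to 77 uM.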
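For activity change, negative = inhibition in this document: plate controls were uninhibited enzyme wells for no effect and no-enzyme background for full effect.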
Potency is read from the fitted curve at half-maximal effect; tags tell the direction and shape of the fitted curve.

Row | SMILES | activity change, negative = inhibition | Potency
1 | Cn1c(N/N=C/c2cc3ccccc3nc2Cl)nc2ccccc21 | inactive: -13.5% | –
2 | COc1ccc(C(=O)Nc2cccnc2)cc1C(=O)Nc1cccnc1 | – | inconclusive: 6.31 µM [inhibitor, partial curve]
3 | CCN1C(=O)CC(Sc2ccccc2C(=O)O)C1=O (stereo unspecified) | inconclusive: -19.7% [inhibitor] | –
4 | COc1ccc(NC(=O)c2ccc(NS(=O)(=O)c3c(C)noc3C)cc2)cc1OC | – | inconclusive: 56.2 µM [inhibitor, single point]
5 | Cc1cc(OCCCn2ccnc2)ccc1C(C)C | – | inconclusive: 7.08 µM [inhibitor, full curve, poor fit]
6 | N#Cc1c(C(F)(F)F)cc(-c2ccc(F)cc2)[nH]c1=O | – | inconclusive: 35.5 µM [activator, partial curve]
7 | CC(C)(C)C(=O)Nc1ccc(S(=O)(=O)c2ccc(NC(=O)C(C)(C)C)cc2)cc1 | inconclusive: -16.3% [inhibitor] | –
8 | O=C(CN1C(=O)/C(=C\c2ccc(F)cc2)Oc2ccccc21)N1CCN(c2ccccn2)CC1 | – | inconclusive: 4.47 µM [activator, partial curve]
9 | O=C(N/N=C/c1cccc(C(F)(F)F)c1)c1cc2c(s1)-c1ccccc1CC2 | – | inconclusive: 35.5 µM [activator, partial curve]
10 | Cc1cc(N2C(=O)C=CC2=O)c([N+](=O)[O-])cc1C | inactive: 9.04% | –
11 | COc1ccc(N(CC(=O)N2CCCCCC2)S(=O)(=O)c2c(C)[nH]c(=O)[nH]c2=O)cc1 | inactive: -4.46% | –
12 | CCOc1ccc(N2C(=O)Nc3ccccc3C2(O)C(=O)NCc2ccc(F)cc2)cc1 (stereo unspecified) | inactive: -0.476% | –
13 | COCCN=c1scc(-c2ccco2)n1/N=C/c1ccc(O)c(O)c1O | inactive: -3.22% | –
14 | Nc1sc(-c2ccccc2)cc1C(=O)O | inactive: 1.27% | –
15 | O=C(NC1CCCCC1)NC1CC2CCC(C1)N2C(=O)NCc1ccccc1 (stereo unspecified) | – | inconclusive: 39.8 µM [inhibitor, single point]
16 | N#CCCN(C(=O)COc1ccc(Br)cc1F)c1ccc(F)cc1 | – | inconclusive: 50.1 µM [inhibitor, single point]
17 | Cc1cc(C)c2nc(SCC(=O)NNC(=O)c3ccco3)c(C)cc2c1 | – | inconclusive: 1 µM [inhibitor, full curve]
18 | CCC(C)(c1ccc(C(=O)OC)s1)c1ccc(C(=O)OC)s1 | inconclusive: -16.7% [inhibitor] | –
19 | COc1ccc(C)cc1NC(=O)c1[nH]c(C)c(C(C)=O)c1C | – | inconclusive: 50.1 µM [inhibitor, single point]
20 | O=C1c2ccccc2C(=O)N1CCc1c[nH]c2ccccc12 | – | inconclusive: 0.316 µM [activator, full curve, poor fit]
21 | O=C(O)CCCNc1ccc([N+](=O)[O-])c(NCCCC(=O)O)n1 | inconclusive: 15.5% [activator] | –
22 | CCOC(=O)c1c(C)[nH]c(C(=O)C(C)OC(=O)c2cccc(OCc3c(C)noc3C)c2)c1C (stereo unspecified) | – | inconclusive: 11.2 µM [inhibitor, single point]

Row | SMILES | activity change, negative = inhibition | Potency
23 | C=CCC1(N(C(C)=O)c2ccccc2)CCCCC1 | inconclusive: 15.4% [activator] | –
24 | Cc1onc(-c2ccccc2Cl)c1C(=O)NC(=S)Nc1ccc(C(C)C)cc1 | – | inconclusive: 28.2 µM [inhibitor, partial curve, poor fit]
25 | O=C1OC2(c3ccccc3)C3CCCC2C13 | inconclusive: -17% [inhibitor] | –
26 | O=C(OCc1cccc([N+](=O)[O-])c1)c1cc(=O)[nH]c2ccccc12 | inconclusive: 19.6% [activator] | –
27 | COc1ccc(OC)c(NC(=O)c2ccc(CN3CCOCC3)cc2)c1 | inconclusive: -16.4% [inhibitor] | –
28 | CCn1c(C(=O)Nc2ccsc2C(=O)OC)cc2sc(Cl)cc21 | – | inconclusive: 50.1 µM [inhibitor, single point]
29 | CC(=O)Oc1ccc2nc(-c3cccs3)oc(=O)c2c1 | – | inconclusive: 1.26 µM [inhibitor, full curve, poor fit]
30 | OC(COCc1ccc(Cl)cc1)CN1CCN(CC(O)COCc2ccc(Cl)cc2)CC1 (stereo unspecified) | – | inconclusive: 25.1 µM [inhibitor, partial curve]
31 | COc1ccc(Nc2oc(-c3ccccc3Cl)nc2C#N)cc1 | – | inconclusive: 50.1 µM [activator, single point]
32 | CS(=O)(=O)Nc1ccc(C2=NN(S(C)(=O)=O)C(c3ccc4nccnc4c3)C2)cc1 (stereo unspecified) | inconclusive: 15.2% [activator] | –
33 | O=C(CSc1ccc(Cl)cc1)N1CCC(c2nc3ccccc3s2)CC1 | – | inconclusive: 1.78 µM [inhibitor, partial curve, poor fit]
34 | CN(C)c1nc(Oc2ccc(=O)n(-c3ccccc3)n2)nc(N2CCOCC2)n1 | – | inconclusive: 35.5 µM [inhibitor, single point]
35 | O=C(C1CCN(S(=O)(=O)c2cccc3nsnc23)CC1)N1CCc2ccccc2C1 | – | inconclusive: 35.5 µM [inhibitor, single point]
36 | Cc1nc(CCNC(=O)COc2ccccc2)cs1 | – | inconclusive: 11.2 µM [inhibitor, single point]
37 | Cc1ccc(-n2c(=O)c3ccc(C(=O)NCc4ccco4)cc3n(Cc3ccccc3C#N)c2=O)cc1 | inactive: 3.87% | –
38 | CCN1CCN(CCCNC(=O)c2ccc(/C=C3/Sc4ccccc4N(Cc4ccccc4F)C3=O)cc2)CC1 | – | inconclusive: 0.178 µM [inhibitor, full curve, poor fit]
39 | O=c1c2cc(-c3ccccc3)sc2nc2n1CCC2 | inconclusive: 15.8% [activator] | –
40 | COc1ccc(-c2cc(-c3cccs3)c(C#N)c(SCC(=O)NCc3ccccc3)n2)cc1 | inconclusive: 17.9% [activator] | –
41 | CCOCCCNC(=S)N1CCCN(c2nc3cc(C)c(C)cc3cc2C#N)CC1 | inconclusive: 21.7% [activator] | –
42 | C#C[C@]1(O)CC[C@H]2[C@@H]3CCc4cc(O)ccc4[C@H]3CC[C@@]21C | – | inconclusive: 12.6 µM [inhibitor, single point]
43 | COc1cc(OC)cc(C(=O)NC2CCN(Cc3nnnn3Cc3ccc(F)cc3)CC2)c1 | inconclusive: 13.3% [activator] | –
44 | CCOC(=O)/C(=N\Nc1ccc(Cl)cc1)c1csc(Nc2ccccc2)n1 | – | inconclusive: 20 µM [inhibitor, single point]

Row | SMILES | activity change, negative = inhibition | Potency
45 | CC(=O)c1ccc(NC(=O)CCC(=O)OCC(F)(F)C(F)F)cc1 | inconclusive: -16.1% [inhibitor] | –
46 | c1ccc(-c2nnc(CSc3nnc(-c4cccs4)o3)o2)cc1 | – | inconclusive: 6.31 µM [inhibitor, partial curve, poor fit]
47 | Cc1c(NS(=O)(=O)c2cccc(C(=O)OCC(=O)N(C)C3CCCCC3)c2)c(=O)n(-c2ccccc2)n1C | – | inconclusive: 56.2 µM [inhibitor, single point]
48 | CC(C)(C)CC(C)(C)c1ccc(O)c(CN2CCN(CCC#N)CC2)c1 | – | inconclusive: 44.7 µM [inhibitor, single point]
49 | Clc1ccccc1Cc1noc(CN2CCCCC2CCc2ccccn2)n1 (stereo unspecified) | – | inconclusive: 12.6 µM [inhibitor, single point]
50 | COc1ccc2cc(C(=O)N/N=C/c3sc4ccccc4c3O)ccc2c1 | – | inconclusive: 10 µM [inhibitor, partial curve]
51 | CC1(C)CC(=O)C2=C(C1)OC1=C(C(=O)CC(C)(C)C1)C2c1ccc(O)cc1O | – | inconclusive: 44.7 µM [inhibitor, single point]
52 | O=c1c2c(-c3ccccc3)csc2nc2c3ccccc3c(NCCN3CCOCC3)nn12 | – | inconclusive: 35.5 µM [activator, partial curve]
53 | COc1ccc(OC)c(S(=O)(=O)N2CCC(C(=O)N3CCOCC3)CC2)c1 | inconclusive: 12.2% [activator] | –
54 | CCOc1ccc(C(=O)NC2CCN(CC(=O)NCc3cccs3)CC2)cc1 | inconclusive: 5.27% [activator] | –
55 | COc1ccc(S(=O)(=O)N2CCN(C(=O)c3ccco3)CC2)cc1OC | – | inconclusive: 35.5 µM [inhibitor, partial curve]
56 | CCOc1ccccc1NS(=O)(=O)c1cccs1 | inactive: 1.47% | –
57 | COc1ccccc1NC(=S)NCCc1ccc(Cl)cc1 | – | inconclusive: 50.1 µM [inhibitor, single point]
58 | Fc1ccc(C2CC(c3cccs3)=NN2c2ccccc2)cc1 (stereo unspecified) | – | inconclusive: 31.6 µM [activator, partial curve]
59 | COc1ccc(S(=O)(=O)Nc2ccc(S(=O)(=O)N3CCOCC3)cc2)cc1 | inconclusive: -15.6% [inhibitor] [at 15.4 µM] | –
60 | O=C1CSC(=S)N1/N=C/c1ccc(O)c([N+](=O)[O-])c1 | – | inconclusive: 44.7 µM [inhibitor, single point]
61 | CNc1ccccc1C(=O)OCC(C)=O | – | inconclusive: 31.6 µM [activator, partial curve]
62 | COC(=O)c1c(C)oc(C)c1S(=O)(=O)N(C)C1CCCCC1 | – | inconclusive: 50.1 µM [inhibitor, single point]
63 | O=C(O)c1ccc(/C=N/NC(=O)c2cc(-c3cccs3)nc3ccccc23)cc1 | inconclusive: -15.2% [inhibitor] | –
64 | CCOc1ccc(N(CC(=O)Nc2cccc(N(C)S(C)(=O)=O)c2)S(=O)(=O)c2ccccc2)cc1 | – | inconclusive: 56.2 µM [inhibitor, single point]
65 | CC1CCN(C(=O)CSCC(=O)O)CC1 | inconclusive: 20.5% [activator] | –
66 | O=C(CC12CC3CC(CC(C3)C1)C2)NC(=S)Nc1ccc(CN2CCOCC2)cc1 | inconclusive: 8.27% [activator] | –
